Experimental data published in the supplement of paper PMC3334620.
Whole data set: some 33,000 sequences, median “E-score (-0.5 to 0.5)” near -0.01, cut for the highest 2% near 0.26. The list shows a part of the results.

These sequences were tested against Ste12 (UniProt P13574) (assay: PBM E-score (8-mer binding enrichment) (E-score (-0.5 to 0.5)); higher = stronger / more preferred TF binding; most listed sequences are background and not binding sites). Settings: protein concentration: 200 nM; construct: GST-DNA-binding domain.
Procedure, shortened: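 Using PURExpress in vitro transcription/translation, GST-tagged yeast transcription factors were made in full-length or DNA-binding-domain form. These were applied at about 100-200 nM to double-stranded universal all-10-mer Agilent arrays, and bound protein was detected with fluorescent anti-GST. Scans were normalised with masliner before the Universal PBM Analysis Suite assigned E-scores to ungapped eight-base words pooled with their reverse complements.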
For ACTGACGC, the “PBM E-score” value was -0.185.
For AAAGTCTA, the “PBM E-score” value was -0.0308.
With ATTCCACA the “PBM E-score” value was 0.268.
With ACTGCTAA the “PBM E-score” value was -0.0314.
ATAGTGCA was tested, and the “PBM E-score” value was 0.0969.
AGCTCACA was tested, and the “PBM E-score” value was -0.203.
For CACTAGAC, the “PBM E-score” value was -0.0669.
In the case of AGCTTTAT, the “PBM E-score” value is reported as 0.0598.
GACATTGA was tested, and the “PBM E-score” value was 0.051.
With AAATAGCA the “PBM E-score” value was -0.119.
CTCGCGGA was tested, and the “PBM E-score” value was -0.0624.
For CCATCCAG, the “PBM E-score” value was -0.103.
In the case of ATTTCCAA, the “PBM E-score” value is reported as 0.0107.
In the case of GGATCCTA, the “PBM E-score” value is reported as -0.188.
In the case of AGATGGGG, the “PBM E-score” value is reported as -0.0563.
In the case of AACTTAGA, the “PBM E-score” value is reported as 0.081.
With AGCCATGC the “PBM E-score” value was -0.0768.
In the case of CGTCTGGA, the “PBM E-score” value is reported as -0.149.
In the case of ACGAGCGT, the “PBM E-score” value is reported as -0.254.
In the case of ACAAAGGT, the “PBM E-score” value is reported as -0.0049.
ACAAACGT was tested, and the “PBM E-score” value was 0.0212.
For ACCCCTAA, the “PBM E-score” value was -0.135.
CGAGCGCC was tested, and the “PBM E-score” value was -0.11.
AGCTGAGG was tested, and the “PBM E-score” value was -0.229.
CGAGGACC was tested, and the “PBM E-score” value was -0.205.
For CCGGTTCG, the “PBM E-score” value was -0.0907.
For ACACACAA, the “PBM E-score” value was 0.191.
CTAACGAG was tested, and the “PBM E-score” value was -0.0274.
In the case of CCTGAACG, the “PBM E-score” value is reported as -0.0912.
In the case of GATGCAGA, the “PBM E-score” value is reported as -0.196.
For AGGCCCCA, the “PBM E-score” value was -0.14.
With CCAACCGA the “PBM E-score” value was 0.0461.
CTGAGCTC was tested, and the “PBM E-score” value was -0.171.
For CGGGGAGA, the “PBM E-score” value was 0.0611.
CCCTAAAG was tested, and the “PBM E-score” value was -0.119.
In the case of CACCCTAC, the “PBM E-score” value is reported as -0.0789.
For CTGGCGCC, the “PBM E-score” value was -0.0481.
With CGTGATCC the “PBM E-score” value was -0.0313.
CTGCCTTA was tested, and the “PBM E-score” value was -0.117.
With ATCGGATA the “PBM E-score” value was 0.212.
In the case of CACATTGC, the “PBM E-score” value is reported as 0.112.
GCATATAA was tested, and the “PBM E-score” value was 0.0613.
With CTCGCTCA the “PBM E-score” value was 0.061.
In the case of CTCCGCAG, the “PBM E-score” value is reported as 0.135.
In the case of CTTCATTC, the “PBM E-score” value is reported as 0.0983.
For ATATCTGG, the “PBM E-score” value was -0.0736.
For ACTACGAC, the “PBM E-score” value was -0.0122.
TAAATCCA was tested, and the “PBM E-score” value was 0.00822.
With ATACGTGG the “PBM E-score” value was -0.0972.
In the case of GGTTTGAC, the “PBM E-score” value is reported as -0.0297.
CGTAGAAG was tested, and the “PBM E-score” value was -0.0126.
In the case of CTAGAGAA, the “PBM E-score” value is reported as 0.0303.
In the case of CTTAGAGA, the “PBM E-score” value is reported as -0.197.
In the case of GGAAGCAC, the “PBM E-score” value is reported as -0.109.
AGGGGAAT was tested, and the “PBM E-score” value was 0.151.
CGACTCAC was tested, and the “PBM E-score” value was -0.179.
With CATATCCC the “PBM E-score” value was 0.0983.
For CGTACCTA, the “PBM E-score” value was -0.0858.
CGCAAAAG was tested, and the “PBM E-score” value was -0.124.
In the case of TATTGCAA, the “PBM E-score” value is reported as 0.0855.
With GAGGATGC the “PBM E-score” value was -0.095.
With GATGCCCA the “PBM E-score” value was -0.0158.
With CAAAAGAC the “PBM E-score” value was 0.0341.
In the case of ACTATATG, the “PBM E-score” value is reported as -0.0612.
For TTAGTGAA, the “PBM E-score” value was 0.191.
AGAATCGG was tested, and the “PBM E-score” value was -0.109.
In the case of CAAGGCCC, the “PBM E-score” value is reported as -0.154.
In the case of ATGTAGCA, the “PBM E-score” value is reported as 0.0638.
TAAAGTCA was tested, and the “PBM E-score” value was 0.241.
With TACCAGGA the “PBM E-score” value was 0.0462.
For AACCTCAG, the “PBM E-score” value was -0.146.
AAGCAAGG was tested, and the “PBM E-score” value was -0.131.
For ATCCGATG, the “PBM E-score” value was 0.277.
In the case of ATCGGTGG, the “PBM E-score” value is reported as -0.0711.
GGGGGCAC was tested, and the “PBM E-score” value was -0.14.
For GATCTGGC, the “PBM E-score” value was -0.0208.
With CAGAGCAC the “PBM E-score” value was 0.0445.
For CGCACGCG, the “PBM E-score” value was -0.104.
In the case of GAATGGGC, the “PBM E-score” value is reported as 0.152.
For ACTAAAGG, the “PBM E-score” value was -0.0901.
With ATTCACAA the “PBM E-score” value was 0.131.
With CCCCTTCC the “PBM E-score” value was -0.0135.
In the case of AGTGAACT, the “PBM E-score” value is reported as -0.00261.
With GTCCCCTA the “PBM E-score” value was -0.0692.
For CATACGAA, the “PBM E-score” value was -0.0391.
In the case of CTTCCCGC, the “PBM E-score” value is reported as 0.0526.
With GAGTTGAA the “PBM E-score” value was 0.0969.
AATAAATC was tested, and the “PBM E-score” value was 0.086.
With CCTAATCC the “PBM E-score” value was -0.116.
For AAAAGGCG, the “PBM E-score” value was 0.00864.
For GATAAGGC, the “PBM E-score” value was 0.0186.
With CGAAGGCC the “PBM E-score” value was -0.229.
AGAGCGGG was tested, and the “PBM E-score” value was -0.0296.
With AACTGGCT the “PBM E-score” value was -0.208.
With AGGGCCCA the “PBM E-score” value was -0.148.
In the case of ACCCATCA, the “PBM E-score” value is reported as 0.0516.
GCGTATCC was tested, and the “PBM E-score” value was -0.115.
In the case of CAAGTGTG, the “PBM E-score” value is reported as -0.056.
AAGGGGCT was tested, and the “PBM E-score” value was -0.111.
In the case of GTGCTTGA, the “PBM E-score” value is reported as -0.169.
CCCACGCG was tested, and the “PBM E-score” value was -0.0503.
For CGAACACG, the “PBM E-score” value was -0.0926.
ACCCATTA was tested, and the “PBM E-score” value was 0.0332.
CGGTACGA was tested, and the “PBM E-score” value was -0.0822.
With GGCTTGGA the “PBM E-score” value was -0.192.
CCGATGCG was tested, and the “PBM E-score” value was -0.0377.
For GGTGACCA, the “PBM E-score” value was -0.16.
AGTCGTAT was tested, and the “PBM E-score” value was -0.124.
With CGACCCTA the “PBM E-score” value was -0.0581.
